From ChEMBL document CHEMBL4888484, “Replenishing the malaria drug discovery pipeline: Screening and hit evaluation of the MMV Hit Generation Library 1 (HGL1) against asexual blood stage Plasmodium falciparum ,using a nano luciferase reporter read-out” (2022)
The campaign covered roughly 150,000 compounds. About 540 (0.36%) showed an effect of 50% or more. The list shows a part of the results.

Each molecule was assayed on Plasmodium falciparum (assay: Primary screen in NF54 nanoGlo assay, in single point, at 2uM, 72h; a lower Z score goes with more inhibition). Conditions: timepoint 72 hour.
Assay type: functional, Erythrocyte

| SMILES | % Inhibition | Z score |
| --- | --- | --- |
| O=C(NCc1ccccc1)N1Cc2ccccc2-n2cccc2[C@H]1c1ccccc1 | -9% | 1.11 |
| Cn1ccc2[nH]c(C(=O)N3C4CCC3C(CO)C4)cc21 (centres undefined) | -6% | 0.73 |
| O=C1CCN(C(=O)c2ccc(S(=O)(=O)N3CCCCC3)cc2)CC1 | -2% | 0.38 |
| COc1ccc(Cl)cc1C(=O)[C@H]1CCCN(Cc2cccc(C)n2)C1 | -2% | 0.41 |
| COc1cc(NCc2cnc(N(C)C)nc2)ncc1Br | -11% | 2.05 |
| O=C1NC(=O)C2(Cc3cc(C(F)(F)F)ccc3N3CCCCC32)C(=O)N1c1ccccc1 (centres undefined) | 36% | -4.03 |
| O=C(NCCc1cccc(Cl)c1)N1CCN([C@H]2CN3CCC2CC3)CC1 | -14% | 2.67 |
| Cc1cc(C)n(CCN2C[C@@H](C(=O)O)[C@H](c3ccc(Br)cc3)C2)n1 | 5% | -0.93 |
| c1cncc(CN(Cc2noc(C3CCCC3)n2)[C@H]2CN3CCC2CC3)c1 | 1% | -0.11 |
| Cc1csc(O[C@H]2CN3CCC2CC3)n1 | 1% | -0.07 |
| c1cc2c(c(-c3ccc4ncccc4c3)c1)CCNC2 | -12% | 2.36 |
| C1CCC(NC2CCCC3OCCC23)CC1 (centres undefined) | -3% | 0.52 |
| CC(Cc1ccc(Cl)cc1)NCC1CCCS1(=O)=O (centres undefined) | 6% | -0.69 |
| CC(C)NC(=O)N1C[C@@H]2C[C@H](C1)c1ccc(-c3cccnc3)c(=O)n1C2 | -6% | 0.76 |
| CCOc1ccc(NC(=O)C(Cl)(Cl)Cl)cc1 | -7% | 1.2 |
| CCn1ccc(C(=O)N2CCC3(CC2)NCc2ccccc2-n2ccnc23)n1 | 7% | -0.95 |
| c1ccc2c(c1)oc1c(N3CCN4CCC[C@H]4C3)ncnc12 | -8% | 1.47 |
| COc1ccc(-c2oc(=O)n(Cc3cccc(Cl)c3)c2-c2ccc(OC)cc2)cc1 | -1% | 0.08 |
| CC(Cc1ccc(Br)cc1)NC[C@@H](C)O (some centres undefined) | -10% | 1.05 |
| O=C(c1[nH]nc2c1CCCC2)N1CCC2(CC1)OCCO2 | 4% | -0.62 |
| Cc1ccc(OCc2c(C(=O)NCc3ccco3)c(=O)cc(C)n2CCN2CCOCC2)cc1 | -14% | 1.83 |
| CC(Cc1ccc(F)c(Br)c1)NC(=O)NC1CC(=O)N(C)C1 (centres undefined) | -15% | 2.05 |

| SMILES | % Inhibition | Z score |
| --- | --- | --- |
| CCn1c(=O)oc2cc(-c3noc(COc4ccc(C)cc4)n3)ccc21 | -7% | 0.68 |
| CO[C@H]1C[C@H]2CC[C@@H](C1)N2Cc1noc(C2CCCC2)n1 | -2% | 0.26 |
| COc1ccc2c(c1)c(CN1CCC([C@H](C)O)CC1)cn2C | -7% | 1.31 |
| C/C=C1/CN2[C@H]3C[C@@]45c6ccccc6N[C@@H]4[C@@H]2C[C@@H]1C3(C(=O)OC)[C@H]5O (some centres undefined) | -3% | 0.41 |
| CN(C)c1ccc(S(=O)(=O)F)cc1 | 8% | -1.41 |
| O=C(CCc1cccnc1)N1CC[C@@]2(CCCN(CC3CC3)C2)C1 | -5% | 0.71 |
| Cc1cccc(C)c1-n1nnnc1C1(NCCc2ccccc2)CCC(C)CC1 (centres undefined) | -3% | 0.41 |
| C[C@@H](Cc1ccccc1F)NCc1nnc(C2CC2)s1 | -13% | 1.36 |
| CC1CC2(O)c3nonc3CCC2N1O (centres undefined) | 29% | -3.26 |
| Cn1ccnc1CN1C[C@@H]2Oc3ncccc3S(=O)(=O)N[C@@H]2C1 | 8% | -1.19 |
| COc1cccc([C@H]2CN(C(=O)c3[nH]cnc3C)[C@@H]3C4CCN(CC4)[C@H]23)c1 | -6% | 0.57 |
| CCc1nc(C)sc1CN1C[C@@H]2CC[C@H]1CN(c1ncccn1)C2 | -25% | 2.65 |
| O=C1NC(=O)N(c2ccccc2)C(=O)[C@H]1Cc1ccc(Cl)cc1 | -1% | 0.09 |
| C[C@@H]1CN(c2ncnc3[nH]ccc23)CCN1 | 2% | -0.22 |
| O=C(Nc1nccs1)c1c(O)c2c(n(Cc3ccco3)c1=O)CCCC2 | -17% | 1.52 |
| Fc1ccc2c(N3CC[C@@]4(CCCNC4)C3)nccc2c1 | – | -0.55 |
| CN(C(=O)Oc1cc2ccccc2cc1OC(=O)N(C)c1ccccc1)c1ccccc1 | 19% | -3.52 |
| O=C(Cc1ccsc1)N1CCCCC[C@@H]1CN1CCOCC1 | -7% | 1.06 |
| Cc1cccnc1C[C@H](O)C(Cl)(Cl)Cl | -2% | 0.34 |
| Nc1ccc(N2CCN3CCC[C@H]3C2)cc1 | 36% | -4.1 |
| CN(C)S(=O)(=O)c1ccc2c(c1)oc(=O)n2CC(=O)c1ccc(OCc2ccccc2)c(F)c1 | -2% | 0.22 |
| C[C@@H](C(=O)c1ccc(N)cc1)N1CCCCCC1 | -2% | 0.27 |

| SMILES | % Inhibition | Z score |
| --- | --- | --- |
| O=C(Cn1ccc2ccccc2c1=O)NCC(=O)N1CCC2(CC1)OCCO2 | 3% | -0.34 |
| CC(C)=CC1C(C(=O)N2CCC3(CC2)OCCO3)C1(C)C (centres undefined) | -13% | 1.89 |
| CCc1ccc(NC(=O)CN2C(=O)CN=C(c3ccccc3)c3ccccc32)cc1 | 0% | 0.04 |
| CCOC(=O)NCCC(=O)OCCS(=O)(=O)c1ccc2[nH]c(=O)oc2c1 | 32% | -3.62 |
| CCN(CCc1ccccc1)Cc1noc(C2CCC2)n1 | 15% | -2.05 |
| COc1ccnc(N2CCCC3CN(C)CCC32)n1 (centres undefined) | -4% | 0.55 |
| O=C(c1ccc(Cl)c(Cl)c1)N1[C@@H]2CC[C@H]1[C@H]1CNC[C@H]12 | -13% | 1.76 |
| CC1CN(C2(n3nnc4ccccc43)CCC(C(C)(C)C)CC2)CC(C)O1 (centres undefined) | -3% | 0.39 |
| CC(=O)C1(c2ccccc2)CCN(C(=O)c2cn(C)c3ccccc23)CC1 | -14% | 1.62 |
| O=C1NC(=O)C2(Cc3ccccc3N3CCCC32)C(=O)N1Cc1ccccc1 (centres undefined) | 2% | -0.29 |
| Cc1cnc(CN2CCC3(CCCC3)C2)cn1 | -12% | 2.36 |
| COc1cc2ncc(C#N)c(N3CCC(C(=O)N4CCC5(CC4)OCCO5)CC3)c2cc1OC | -3% | 0.38 |
| COc1cccc(CC(=O)N2CCN(C)CCC23CCOCC3)c1 | -11% | 1.76 |
| O=C(CN1CC2CCC(C2)C1)Nc1cccnn1 | -11% | 1.77 |
| Cc1nc(CCN2CCN(c3ccccc3F)CC2)cs1 | -10% | 1.21 |
| Cc1ccc2[nH]c(N3CCN(C)CC3)nc2c1 | -2% | 0.44 |
| CCN(C(=O)CN(C)S(C)(=O)=O)[C@@H](C)Cc1ccc(OC)cc1 | -11% | 2.16 |
| COc1ccc(CC(=O)N2CCN(CCn3cccn3)CC2)cc1OC | -7% | 1.4 |
| CC(C)=CCN1CCN(C(=O)Cc2ccccc2O)[C@H]2CS(=O)(=O)C[C@H]21 | -11% | 1.24 |
| COc1ccnc(CN2C[C@H](C(=O)O)[C@@H](c3ccc(F)cc3)C2)c1OC | -13% | 1.68 |
| N#Cc1ccc(OCC(=O)N2CCN(C3CC3)CC2)cc1 | -2% | 0.28 |
| CC1CCCCC1NC1CCN(C)CC1 (centres undefined) | -6% | 1.08 |

| SMILES | % Inhibition | Z score |
| --- | --- | --- |
| c1ccc(-c2cccc(N3CCNCC3)c2)cc1 | -15% | 1.7 |
| N#Cc1ccc(CN2CC(C(=O)c3ccc(F)cc3)C2)o1 | -13% | 1.69 |
| C=CCCC(O)CNC1CCCCC1C (centres undefined) | -13% | 2.06 |
| COc1ccc(CC(=O)N2CCN(C[C@H](OCc3ccc(C#N)cc3)c3cccc(N4CCCC4)c3)CC2)cc1 | -17% | 2.46 |
| CCOC(=O)c1cccnc1N1CCN2CCOC[C@@H]2C1 | -3% | 0.27 |
| COc1ccc([C@H](NC(=O)Oc2ccccc2)c2nccc3cc(OC)c(OC)cc23)cc1OC | -11% | 1.06 |
| CCc1nc(C)c(CN2CCC[C@H](C(=O)c3cc(Cl)ccc3OC)C2)[nH]1 | -3% | 0.52 |
| COc1cccc([C@H]2Oc3ccccc3CC23C(=O)NC(=O)NC3=O)c1 | -9% | 1.17 |
| O=S(=O)(F)CCN1CCn2c(Cc3ccccc3)nnc2C1 | -3% | 0.47 |
| CN1CCC2(CCCN2C(=O)c2ccc(S(=O)(=O)F)cc2)CC1 | 0% | 0.02 |
| CCc1ccc(CN2C[C@H]3c4ccccc4OC[C@@]3(C(=O)O)C2)nc1 | -6% | 1.23 |
| Cc1ccccc1CC(=O)N1CCN(CC(=O)N2Cc3ccccc3[C@H](c3ccccc3)C2)CC1 | 0% | 0.04 |
| CCCCn1nc(C)nc1CN1CCN(CC)CC1 | -2% | 0.22 |
| COC(c1ccccc1Cl)C(C)NCC1CCOC1 (centres undefined) | -15% | 1.83 |
| O=C(Nc1ccc(Oc2cccc(F)c2)nc1)N1CCC2(CC1)OCCO2 | -15% | 2.36 |
| CCn1c(=O)oc2cc(-c3noc(-c4cc(C)cc(C)c4)n3)ccc21 | 5% | -0.45 |
| COC(=O)C1(c2ccccc2)CCN(C(=O)c2cc(C)nn2C)CC1 | -7% | 1.02 |
| CN(C)c1ccc(CN2CCN(CCO)[C@@H]3CS(=O)(=O)C[C@@H]32)cn1 | -3% | 0.58 |
| O=C(O)[C@H]1CN(CCC(=O)N2CCc3ccccc3C2)C[C@@H]1c1ccc(F)cc1 | -7% | 1.31 |
